# The whole screen tested about 370,000 compounds, of which about 150 (0.041%) were called active. This list was built around the results that the source calls inconclusive (neither active nor inactive); the mix of calls is not that of the screen. Calls come from the whole dose curve; as a rule, active = well fitted inhibition curve with a large enough effect; inconclusive = small, poorly fitted or top-dose-only effect; inactive = flat fitted curve, though single readings scatter. No potency is given beside an inconclusive call; the fits are too rough.
# Biological target: Beta-lactamase (Escherichia coli (strain K12)) (UniProt P00811)
# UniProt P00811, sequence (P00811 whole entry, looked up): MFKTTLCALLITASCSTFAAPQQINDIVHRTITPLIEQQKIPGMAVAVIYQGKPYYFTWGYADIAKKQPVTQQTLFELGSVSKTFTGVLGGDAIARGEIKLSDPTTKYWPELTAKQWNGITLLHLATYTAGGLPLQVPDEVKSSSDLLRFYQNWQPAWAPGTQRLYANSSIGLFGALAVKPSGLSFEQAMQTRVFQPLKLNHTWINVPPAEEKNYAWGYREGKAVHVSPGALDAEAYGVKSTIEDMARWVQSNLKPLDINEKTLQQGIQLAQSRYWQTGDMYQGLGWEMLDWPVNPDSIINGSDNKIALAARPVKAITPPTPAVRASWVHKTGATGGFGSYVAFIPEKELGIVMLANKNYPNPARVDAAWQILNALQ
# Experiment: qHTS Inhibitors of AmpC Beta-Lactamase (assay with detergent); note: nearly all actives have a fitted effect of over 25% in size
# Conditions: AmpC hydrolysis of nitrocefin, absorbance 480 nm, 0.01% Triton; series mostly up to 114 µM
# In short: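 20 mM phosphate pH 7.0 + 0.01% (detergent screen) or 0.0001% Triton X-100; 5.3 nM AmpC reagent; cpd preinc 15 min RT; nitrocefin (800 uM stock) to start; A480 q20 s × 4 min; Activity was normalised to no-enzyme and no-compound control wells.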
# Potency is the fitted concentration of half-maximal effect; tags give direction and shape of the fitted curve.
row,Structure (SMILES),Potency
1,CCN(c1ccccc1)S(=O)(=O)c1ccc(F)c(C(=O)Nc2ccc(C)cc2)c1,inactive
2,Cc1nc(-c2ccc(F)cc2)c(CC(=O)N2CCN(S(=O)(=O)c3ccccc3Br)CC2)s1,"inconclusive [inhibitor, partial curve]"
3,Cc1ccc(O)c(N=Cc2cccs2)c1,"inconclusive [inhibitor, single point]"
4,COc1ccc(CNCCSc2nnnn2-c2ccccc2)c(OC)c1,inactive
5,CC(=O)/C(C(=N)N1CCN(C(c2ccccc2)c2ccccc2)CC1)=C(\C)O,"inconclusive [inhibitor, partial curve, poor fit]"
6,COc1ccc(Cc2nnc(NC(=O)C3CC(=O)N(c4ccc(OC)cc4)C3)s2)cc1 (centres undefined),"inconclusive [inhibitor, full curve, poor fit]"
7,Cc1ccc2[nH]c(=O)c(CN(CCc3ccccc3)C(=O)N3CCOCC3)cc2c1,"inconclusive [inhibitor, partial curve]"
8,COc1cc(-c2nc(C(=O)NC3CCN(Cc4ccccc4)CC3)cc3c2[nH]c2ccccc23)cc(OC)c1OC,"inconclusive [inhibitor, full curve, poor fit]"
9,Cc1ccc(CNC(=O)CN2C(=O)C3(SCC(=O)N3c3cc(C)cc(C)c3)c3ccccc32)cc1 (centres undefined),inactive
10,CCCOc1ccc(-c2csc3nc[nH]c(=O)c23)cc1,inactive
11,CCN(CC1CCCO1)C(=O)c1cc(COc2cc(C)c(Cl)c(C)c2)on1 (centres undefined),"inconclusive [inhibitor, full curve, poor fit]"
12,S=c1[nH]nc(C2CC2c2ccc(Cl)cc2)n1-c1ccc(Cl)cc1 (centres undefined),"inconclusive [inhibitor, partial curve, poor fit]"
13,CC(=O)n1cc(/C=N/NC(=O)c2ccc(Cl)cc2)c2ccccc21,inactive
14,O=C(O)c1ccccc1C(=O)Nc1ccccc1,inactive
15,O=[N+]([O-])c1cc(Cl)cc(/C=N\Nc2ccccn2)c1O,"inconclusive [inhibitor, partial curve, poor fit]"
16,O=C(/C=C/Nc1ccc(F)cc1F)c1ccco1,inactive
17,CCC(=O)Nc1cccc(-c2cn3ccccc3n2)c1,"inconclusive [inhibitor, partial curve]"
18,CCOc1ccc(N(CC(=O)Nc2ccccc2C(=O)NCc2ccco2)S(C)(=O)=O)cc1,"inconclusive [inhibitor, full curve]"
19,CCOC(=O)c1c(C)[nH]c(C)c1C(=O)CSc1nnnn1-c1ccccc1,"inconclusive [inhibitor, partial curve, poor fit]"
20,OCCN(CCO)Cc1ccc(Br)cc1,"inconclusive [inhibitor, full curve, poor fit]"
21,Cc1ccc(C)n1-n1cnc2scc(-c3cccs3)c2c1=O,"inconclusive [inhibitor, full curve]"
22,COc1ccc(N(CC(=O)N2CCOCC2)S(C)(=O)=O)cc1,"inconclusive [inhibitor, full curve, poor fit]"
23,CC(Oc1cc2oc(=O)c3c(c2cc1Cl)CCCC3)C(=O)NCCN1CCOCC1 (centres undefined),"inconclusive [inhibitor, full curve, poor fit]"

row,Structure (SMILES),Potency
1,COC(OC)c1ccnc(-c2ccc(OC(=O)c3ccc(F)cc3)cc2)n1,"inconclusive [inhibitor, full curve, poor fit]"
2,O=C(CSCc1ccccc1)N=Nc1c(O)[nH]c2ccccc12,"inconclusive [inhibitor, full curve, poor fit]"
3,CCCCOC(=O)c1ccc(Nc2nc3ccccc3c3nnc(C)n23)cc1,"inconclusive [inhibitor, single point]"
4,CCOC(=O)c1ccc(N2CSC3=C(C#N)C(c4ccc(OC)cc4OC)CC(=O)N3C2)cc1 (centres undefined),"inconclusive [inhibitor, partial curve, poor fit]"
5,CCCSc1nc(SCC(=O)NCc2ccccc2)c2c3c(sc2n1)COC(C)(CC)C3 (centres undefined),inactive
6,COc1ccccc1NC(=O)CN1CCCCC1,inactive
7,COC(=O)CC1NCCc2cc(OC)c(OC)cc21 (centres undefined),inactive
8,O=C(OCc1nnc(-c2ccccc2)o1)c1ccc2c(c1)C(=O)N(CCc1ccccc1)C2=O,"inconclusive [inhibitor, full curve, poor fit]"
9,CC(=O)N=c1n(C)c2ccccc2n1CCOc1ccccc1,"inconclusive [inhibitor, full curve]"
10,O=C(O)Cn1c(C(F)(F)F)nc2ccccc21,inactive
11,OCc1cn(-c2ccccc2)nn1,"inconclusive [inhibitor, full curve]"
12,CC(C)(C)NC(=O)c1ccc2c(c1)C(=O)N(C1CCCCC1)C2=O,inactive
13,O=C(N/N=C/c1cccnc1)c1ccc(NC(=O)c2ccccc2Cl)cc1,inactive
14,Cc1ccc(S(=O)(=O)N2[C@@H](c3ccc(F)cc3)C(C(=O)O)=CC[C@H]2c2ccc(Cl)cc2)cc1,"inconclusive [inhibitor, full curve, poor fit]"
15,O=C1C2C3C=CC(CNS(=O)(=O)c4ccccc4)(O3)C2C(=O)N1c1ccc(Cl)cc1 (centres undefined),inactive
16,CCc1ccc(NS(=O)(=O)c2ccc(C(=O)N(C)C)s2)cc1,inactive
17,COc1cc(/C=C/C(=O)c2ccc(O)cc2)ccc1OCC#N,"inconclusive [inhibitor, full curve, poor fit]"
18,O=C(COc1ccccc1[N+](=O)[O-])N/N=C/c1ccncc1,"inconclusive [inhibitor, single point]"
19,Cc1ccc2nc(NS(=O)(=O)c3ccc(Cl)cc3)c(Nc3ccc(C(=O)O)cc3)nc2c1,inactive
20,Cc1nnc2c(N3CCN(c4ccccc4)CC3)nc3ccc(C(=O)c4ccccc4)cc3n12,inactive
21,COc1cc(CN2CCCC(C)C2)ccc1OCc1ccccc1 (centres undefined),"inconclusive [inhibitor, full curve]"
22,O=C(Cn1cnc2c(nnn2-c2ccccc2)c1=O)NCCc1ccccc1,"inconclusive [inhibitor, full curve, poor fit]"
23,Cc1ccc(S(=O)(=O)N2CCN(C(=O)CSc3nnc(C)c(=O)[nH]3)CC2)cc1,"inconclusive [inhibitor, full curve, poor fit]"

row,Structure (SMILES),Potency
1,COc1ccc(-c2cc(-c3n[nH]c(=S)n3-c3ccccc3Cl)[nH]n2)cc1,"inconclusive [inhibitor, single point]"
2,CC(C)C(NC(=O)c1ccc(F)cc1)C(=O)N1CCC1 (centres undefined),"inconclusive [inhibitor, single point]"
3,CC[n+]1c(/C=C2\C=C(C)CC(C)(C)C2)sc2ccccc21,inactive
4,COc1cc(-c2c(C#N)c(N)nc3c2CCCC3)ccc1O,"inconclusive [inhibitor, partial curve, poor fit]"
5,CCOC(=O)C1CCN(C(=O)Cn2nc(C)n3c(cc4cc(C)ccc43)c2=O)CC1,"inconclusive [inhibitor, full curve, poor fit]"
6,COc1ccc(S(=O)(=O)N(C)c2ccc(C(=O)NCc3ccncc3)cc2)cc1,"inconclusive [inhibitor, partial curve, poor fit]"
7,CCc1nc2c(sc3nc4c(cc32)COC(C)(C)C4)c(=O)n1Cc1ccco1,inactive
8,Cc1ccc(S(=O)(=O)Cc2cccc(C(=O)N3CCOCC3)c2)cc1,"inconclusive [inhibitor, single point]"
9,Cc1cc(CC(C)C)n(-c2nc3ccccc3c(=O)n2OCc2ccccc2)n1,"inconclusive [inhibitor, full curve, poor fit]"
10,O=C(Cc1cccs1)Nc1ccccn1,"inconclusive [inhibitor, full curve, poor fit]"
11,COc1cccc(C2C(C(=O)c3sc(C)nc3C)=C(O)C(=O)N2CCN2CCOCC2)c1 (centres undefined),inactive
12,O=C(Nc1ccc2c(c1)OCO2)C(=O)c1c[nH]c2ccccc12,inactive
13,CC(C)Cn1c(SCC(=O)Nc2ccc3[nH]c(=O)[nH]c3c2)nc2ccccc2c1=O,"inconclusive [inhibitor, full curve, poor fit]"
14,CCCn1c(=O)c2sccc2n2c(CCCC(=O)N3CCN(c4cccc(C)c4C)CC3)nnc12,inactive
15,CCN(Cc1ccncc1)Cc1nc(Cc2ccccc2Cl)no1,inactive
16,O=C(Nc1ccccc1)C1=C[C@@H](c2coc3ccccc3c2=O)C[C@@H](OCCCCO)O1,inactive
17,CCOC(=O)c1nc(C)[nH]c1C(=O)OCC,"inconclusive [inhibitor, full curve, poor fit]"
18,Cc1ccc(NC(=O)CSc2nc3c(oc4ccccc43)c(=O)n2Cc2ccco2)cc1,inactive
19,CCc1ccc(C(=O)NNC(=O)CCc2nc3ccccc3c(=O)[nH]2)cc1,"inconclusive [inhibitor, full curve, poor fit]"
20,CCOCCn1c(SC)nc2c1c(=O)[nH]c(=O)n2C,"inconclusive [inhibitor, full curve]"
21,CCCOC(=O)c1cc(=O)[nH]c2ccccc12,"inconclusive [inhibitor, partial curve, poor fit]"
22,O=[N+]([O-])c1ccc(S(=O)(=O)NCCc2cn3ccccc3n2)cc1,"inconclusive [inhibitor, partial curve, poor fit]"
23,COC(=O)Cc1ccc(OCc2ccc(Cl)nc2)cc1,inactive
